The campaign covered roughly 220,000 compounds. About 5,700 (2.6%) were called active. The inconclusive results got no clear call from the source; some entries with a clear call stand among them for comparison. Calls come from the whole dose curve; as a rule, active = well fitted inhibition curve with a large enough effect; inconclusive = small, poorly fitted or top-dose-only effect; inactive = no such curve, though single readings can be large or run the other way. Potencies of inconclusive entries are doubtful fits and often do not repeat.
Each compound was assayed against Lysine-specific demethylase 5B (Homo sapiens) (UniProt Q9UGL1) (assay: Primary screen for KDM5B Histone Demethylases FDH-coupled qHTS). Settings: FDH-coupled NADH fluorescence (FDH is formaldehyde dehydrogenase); activity change, negative = inhibition: at 57.7 µM (top of the series) unless noted.
How it was run: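 Coupled FDH/NAD⁺ fluorescence readout. KDM5BΔAP 200 nM final; compound titration, 10 min RT preincubation; substrate mix 12.5 µM H3K4me3, 25 µM 2-OG, 50 µM Fe(II), 100 µM ascorbate, 0.25 mM NAD⁺, 0.25 U/mL FDH; ΔRFU over 30 min.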
Note: nearly all actives have a fitted effect of over 70% in size.
Potency is the fitted concentration of half-maximal effect; tags give direction and shape of the fitted curve.
Throughout, for activity change, negative = inhibition: 0% is about no effect.

UniProt Q9UGL1, sequence (Q9UGL1 whole entry, looked up): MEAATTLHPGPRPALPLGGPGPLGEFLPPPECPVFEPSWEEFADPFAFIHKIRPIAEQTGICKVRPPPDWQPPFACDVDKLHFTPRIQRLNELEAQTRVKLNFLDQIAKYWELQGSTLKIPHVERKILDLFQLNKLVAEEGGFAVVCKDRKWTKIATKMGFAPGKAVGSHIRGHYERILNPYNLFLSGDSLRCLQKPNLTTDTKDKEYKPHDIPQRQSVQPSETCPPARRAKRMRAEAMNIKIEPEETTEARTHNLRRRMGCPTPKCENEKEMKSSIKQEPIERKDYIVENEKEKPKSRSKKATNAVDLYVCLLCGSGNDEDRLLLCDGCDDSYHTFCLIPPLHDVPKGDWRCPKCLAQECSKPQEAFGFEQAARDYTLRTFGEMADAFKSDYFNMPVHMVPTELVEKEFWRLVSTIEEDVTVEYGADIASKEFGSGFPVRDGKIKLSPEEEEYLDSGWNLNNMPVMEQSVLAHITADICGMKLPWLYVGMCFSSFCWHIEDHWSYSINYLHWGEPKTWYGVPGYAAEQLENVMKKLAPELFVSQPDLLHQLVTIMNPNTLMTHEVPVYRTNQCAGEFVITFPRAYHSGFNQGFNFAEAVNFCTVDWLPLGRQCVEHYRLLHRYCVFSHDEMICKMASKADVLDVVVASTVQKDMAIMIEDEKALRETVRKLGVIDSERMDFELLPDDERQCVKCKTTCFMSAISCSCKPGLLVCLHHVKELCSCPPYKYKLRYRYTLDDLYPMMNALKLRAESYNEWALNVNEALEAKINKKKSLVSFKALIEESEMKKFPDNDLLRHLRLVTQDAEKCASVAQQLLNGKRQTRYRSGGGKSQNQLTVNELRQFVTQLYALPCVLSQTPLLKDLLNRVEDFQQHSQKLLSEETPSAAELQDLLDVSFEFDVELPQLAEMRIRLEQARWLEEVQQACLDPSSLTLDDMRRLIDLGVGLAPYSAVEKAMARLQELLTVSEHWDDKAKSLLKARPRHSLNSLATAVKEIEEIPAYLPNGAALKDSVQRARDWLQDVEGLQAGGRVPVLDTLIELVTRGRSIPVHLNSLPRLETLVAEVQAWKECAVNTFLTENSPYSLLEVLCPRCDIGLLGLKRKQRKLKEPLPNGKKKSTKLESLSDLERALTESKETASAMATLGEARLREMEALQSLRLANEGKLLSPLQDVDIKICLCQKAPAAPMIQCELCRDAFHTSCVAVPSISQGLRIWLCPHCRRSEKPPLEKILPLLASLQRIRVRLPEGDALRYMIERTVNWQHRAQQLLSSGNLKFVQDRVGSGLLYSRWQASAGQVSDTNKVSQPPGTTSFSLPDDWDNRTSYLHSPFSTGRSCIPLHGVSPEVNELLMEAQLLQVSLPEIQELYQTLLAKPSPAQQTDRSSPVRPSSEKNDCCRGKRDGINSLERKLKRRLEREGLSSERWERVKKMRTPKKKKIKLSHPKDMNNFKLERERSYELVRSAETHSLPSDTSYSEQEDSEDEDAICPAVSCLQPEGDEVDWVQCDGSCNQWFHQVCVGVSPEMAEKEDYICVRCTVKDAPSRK

| SMILES | Potency | activity change, negative = inhibition |
| --- | --- | --- |
| Cc1ccc(-c2cnc3ccccc3n2)cc1C | inconclusive: 31.6 µM [inhibitor, partial curve, poor fit] | – |
| Cn1ccc(Nc2cc3c(cn2)CN(CCc2ccccc2)CCN3)n1 | – | inactive: -22.9% [at 86.2 µM] |
| Cc1ccc(CNCCC2=CCCCC2)s1 | – | inactive: -12.5% |
| O=S1(=O)c2ccccc2N(Cc2ccc(Cl)cc2)c2ccccc21 | inconclusive: 35.5 µM [inhibitor, partial curve, poor fit] | – |
| CCOc1ccc(-c2cc3c(=O)n(CCNC(=O)c4cccc(N(C)C)c4)ccn3n2)cc1 | active: 31.6 µM | – |
| CCn1c(SCc2cc(=O)n3[nH]cc(C#N)c3n2)nnc1-c1ccc(Cl)cc1 | inconclusive: 22.4 µM [inhibitor, partial curve, poor fit] | – |
| CCCC1CCC(c2ccc(C(C)=O)cc2)CC1 (stereo not given) | – | inactive: 3.77% |
| C=CCNC(=O)c1ccc2cncn2c1 | active: 31.6 µM | – |
| Clc1ccccc1C1(c2ccnc(NC3CCC3)n2)CCNCC1 | inconclusive: 14.1 µM [inhibitor, partial curve] | – |
| Cc1cnc(C2CCOCC2)n1CC1CCN(S(=O)(=O)c2cccnc2)CC1 | – | inactive: -16.2% |
| Cc1ccc(NC(=O)Cc2nc(CSc3nncn3-c3ccccc3)cs2)cc1 | – | inactive: 11% |
| COc1ccc2c(C)c(C(=O)N3CCOC(c4ccc(F)cc4)C3)oc2c1 (stereo not given) | inconclusive: 10 µM [inhibitor, partial curve, poor fit] | – |
| CCCC1CCN(C(=O)c2coc(COc3ccc4ccc(OC)cc4c3)n2)C1 (stereo not given) | inconclusive: 22.4 µM [inhibitor, single point] | – |
| CCN1c2cc(C(=O)Nc3ccc(Cl)c(C)c3)ccc2C(=O)N2CCCCCC21 (stereo not given) | inconclusive: 31.6 µM [inhibitor, partial curve, poor fit] | – |
| Cc1noc(C)c1-c1cc2cc(CO)oc2c(N2CCS(=O)(=O)CC2)n1 | active: 35.5 µM | – |
| OC[C@H]1C[C@@H](NCc2ccc(F)cc2)[C@H](O)[C@@H]1O | inconclusive: 31.6 µM [inhibitor, partial curve] | – |
| O=C(Cn1ccn2nc(-c3ccccc3)c(CO)c2c1=O)Nc1cccc(C(F)(F)F)c1 | inconclusive: 20 µM [inhibitor, partial curve, poor fit] | – |
| Cc1ccccc1NC(=O)c1cc2n(n1)CC(c1ccc(Cl)cc1)OC2 (stereo not given) | inconclusive: 22.4 µM [inhibitor, partial curve, poor fit] | – |
| COc1ccc(-c2nc(CSCC(=O)N3c4ccccc4CC3C)co2)cc1 (stereo not given) | – | inactive: -14.8% |
| Cc1ccc2oc(-c3ccc(C)c(NC(=O)/C=C/c4ccc(Cl)cc4)c3)nc2c1 | inconclusive: 17.8 µM [inhibitor, partial curve, poor fit] | – |
